This is an account of results in paper PMC10726135.

The list shows a part of the results. At the low end of the ranking the order means little. Measured with an extract: partners may take part in the binding.

The target in this assay is T1, HNF4alpha2 (COS-7 nuclear extract) (UniProt P41235).
T1 sequence: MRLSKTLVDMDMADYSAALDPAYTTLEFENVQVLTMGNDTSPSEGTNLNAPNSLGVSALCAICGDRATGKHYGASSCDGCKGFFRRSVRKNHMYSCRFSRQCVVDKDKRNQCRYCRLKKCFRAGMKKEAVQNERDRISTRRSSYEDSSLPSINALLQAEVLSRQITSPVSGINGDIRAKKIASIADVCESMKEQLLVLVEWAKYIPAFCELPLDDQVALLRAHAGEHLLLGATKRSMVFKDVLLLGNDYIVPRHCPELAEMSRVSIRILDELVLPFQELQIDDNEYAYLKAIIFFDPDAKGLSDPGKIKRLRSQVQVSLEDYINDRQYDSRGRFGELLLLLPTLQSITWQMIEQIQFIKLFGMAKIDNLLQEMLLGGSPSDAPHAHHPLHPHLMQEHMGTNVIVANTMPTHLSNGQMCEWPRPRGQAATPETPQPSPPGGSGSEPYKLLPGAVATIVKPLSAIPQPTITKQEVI
Description: protein-binding microarray. The settings on record: COS-7 nuclear extract on double-stranded Agilent 4x180k PBM; binding buffer, salt, pH and temperature not given; high values mean tight binding; double strand, one strand shown; sequences stand for … in …GCCTAGGGAGATTAGAGTATCGGTCGA
On to TCCCAATTTATCTTTCCAGATTGTTCTATT, for which the binding signal (log2 normalized intensity) is -0.0836.

Turning to AATGCCTAAACCAGGATCCAGTCCTCACCC, the binding signal (log2 normalized intensity) was -1.16.

For AATTAAGGAAGATGGTGCAAGTGGCTATGG, the binding signal (log2 normalized intensity) was found to be 0.889.

As for GAAAAGTAATGAAAGGAAATCATTCCAGAA, the binding signal (log2 normalized intensity) was -0.446.

CTTTAATAGGCTGGGATGATTTCAGCTTAT: the binding signal (log2 normalized intensity) was -0.952.

For TCGCCTAGGCCTTTCCTGGGCCTTAAAGCA, the binding signal (log2 normalized intensity) is -1.18.

As to TCTCTGGTCAAAGGGTAAAGATTATGAACT, the binding signal (log2 normalized intensity) stood at 2.44.

Take ACAACAGCCTTGCAGATAAGCCACGAGCCT: the binding signal (log2 normalized intensity) was -1.06.

For the sequence TATTCATTCAACTTTGACTTCCATTGTGTT, the binding signal (log2 normalized intensity) came out at 1.84.

As to TCATCTGAGTAGTGTACGTTGTACCCCACA, the binding signal (log2 normalized intensity) turned out to be 3.56.

Take ACATTGTAACCACCTCTCTGGGTGGTTCGA: the binding signal (log2 normalized intensity) was found to be 0.003.

Turning to GAAAACAAATAGAGCAGACTATTATCAGCC, the binding signal (log2 normalized intensity) was -1.24.

Take CCTAAGTCTGCCGTTTTCTTATTCTGTCAC: the binding signal (log2 normalized intensity) was 1.89.

As to CTCCATGCTGTAGATTGTGGAATGTCTTCT, the binding signal (log2 normalized intensity) turned out to be 1.58.

TTGGGACCTGAGAACAAACAATGGTTTGGG: the binding signal (log2 normalized intensity) turned out to be 0.202.

As to AAACTCTCAAGCTCTCCTCTTATCAGGCAG, the binding signal (log2 normalized intensity) is -1.07.

On to AGTGTAAAGAGCTTTTGGGCAGAGACTATG, for which the binding signal (log2 normalized intensity) is -0.797.

TCAGACTGAGGATGGGCCAAGGTTCAGAGA: the binding signal (log2 normalized intensity) was 1.14.

On to AACTGAGTATTTAGCTTCCTCCCTTGGAAT, for which the binding signal (log2 normalized intensity) was -0.853.

CTATGGACCTGCAAACAGCACTCTCTGATT: the binding signal (log2 normalized intensity) is -1.03.

TCGGCGCTCCGCTTACTCGGCCTGGACCCC: the binding signal (log2 normalized intensity) amounted to 3.29.

Turning to AGAGGCCTTATCTGGCCGCCTAATCCCCTG, the binding signal (log2 normalized intensity) is 1.27.

For the sequence TGCCCTCACAGGTTCCAGCATGGACTTCAC, the binding signal (log2 normalized intensity) turned out to be 2.31.

TTGACCCTGCGATAAGTAGATACCAAATAG: the binding signal (log2 normalized intensity) was determined as 0.44.

Consider AGGCCGTTCTAGCCCTTTTTCCGGCTGAAT, for which the binding signal (log2 normalized intensity) was -1.16.

On to TCTCCTGGAATGCAAGACCTCAGCCCTCAG, for which the binding signal (log2 normalized intensity) is -1.15.

Take CGCCGGAACTGGTCCGGCCCGACTCACGAC: the binding signal (log2 normalized intensity) is -1.12.

For GACAGCCAGCTGGTAAATAAAGGAACTTAC, the binding signal (log2 normalized intensity) is -1.2.

Take GCCTCGGGCCTGCGAGGTTACAGGGTTCAA: the binding signal (log2 normalized intensity) was 2.18.

Turning to GATCCTCACAGTGCCTCTGCAAGTTGGCCT, the binding signal (log2 normalized intensity) amounted to 1.4.

For the sequence CTGAGATTCAGAATAGTTAAGTAACGTGTC, the binding signal (log2 normalized intensity) worked out at 1.17.

As to CACGCCTCAAATGAGCTTTTGATGAGCCTA, the binding signal (log2 normalized intensity) is -1.16.

In the case of AGATTAGATTGCTCAGAGGCACAGTCTGCT, the binding signal (log2 normalized intensity) was -1.18.

Take TCATTTGGCTTCCGTGCCTGCATGGGCTGT: the binding signal (log2 normalized intensity) was -0.209.

In the case of AATGGGCAAAGGTCACAAGAGGTGCTGTGT, the binding signal (log2 normalized intensity) amounted to 4.69.

On to GGTCAGCTCATTCCCTAGGGCTCGGCATTC, for which the binding signal (log2 normalized intensity) was -1.14.

In the case of GACTCTGAGACCTGTGATGGTCACTATCTG, the binding signal (log2 normalized intensity) was 0.304.

Take CTTGCAGGTGTCAGGGGTCAATGTGCACAT: the binding signal (log2 normalized intensity) is 5.04.

TTTCCCTCTGTGCCCGAGCTGTCTTATCTG: the binding signal (log2 normalized intensity) was found to be 0.962.

For the sequence CCTCCTGAGATAGGTATGATAACCCCCGTC, the binding signal (log2 normalized intensity) came to 4.01.

Consider CTGGTGTTTCCCTGTTTGCTTCTGCCCCCT, for which the binding signal (log2 normalized intensity) was 5.16.

GGGTCAACAGACAAATGAAAGAGCTCAAAT: the binding signal (log2 normalized intensity) was -0.882.

For AGGCAGCCTCAGCCACACGCCCATCTCCAC, the binding signal (log2 normalized intensity) was -1.18.

In the case of CTGGTTACTAAACACTTACACCTGGGTGCT, the binding signal (log2 normalized intensity) was -0.949.

As to TTTAAACATTCCCACCTAAGACATAAATAT, the binding signal (log2 normalized intensity) was 1.46.

Take TATCTTCCAGCCCTGTCTCTCAGGTGTAAC: the binding signal (log2 normalized intensity) was found to be 1.35.

On to TTGTCAGTGCCCTATACAGACCTTTGTATA, for which the binding signal (log2 normalized intensity) is 2.96.

Consider GGTACTGGAAACTGGGCAAGGTCCATTACG, for which the binding signal (log2 normalized intensity) is 2.66.

With TGGGTTTCGGTGTCATCTAGACCTGGACTT, the binding signal (log2 normalized intensity) is 2.93.

As for GAGGGGGCAGGACAGCAGGAGTGGGAGAAA, the binding signal (log2 normalized intensity) is -1.04.

Turning to AGCAGTGTGGACTTTTTCCTGAGGGCAGGA, the binding signal (log2 normalized intensity) was 1.29.

Take GAACTCTGACCTTTGCCCCCAGCCTCTCAC: the binding signal (log2 normalized intensity) came out at 8.72.

As for GGCCCTCAGCTGAGATAGCAGAGTCCAGTG, the binding signal (log2 normalized intensity) turned out to be 2.39.

Regarding GGCTCCGATAAACCCAGGCAATGACTCCAA, the binding signal (log2 normalized intensity) was -1.09.

For the sequence GGAAGGCAGTAAGAGAGAAAGAAACAGGGG, the binding signal (log2 normalized intensity) was -1.14.

As for TCCAGGAGGTCGCTGGAAAGGCGGCAGGCT, the binding signal (log2 normalized intensity) was -1.11.

On to CTTGCCATTGGAGGTCACCCTGTGTCAGCG, for which the binding signal (log2 normalized intensity) was 0.743.

For TGAATTGGTCATAATTCTCAAACTTTATGG, the binding signal (log2 normalized intensity) was 1.37.

On to TAGGAAGCAACAGACTGCTGTGTTACTAGA, for which the binding signal (log2 normalized intensity) is -1.19.

Regarding TGGCATCCCTGTGGTATTTGCTCTGTCATC, the binding signal (log2 normalized intensity) amounted to 1.91.

Regarding TGTGAGACCGGTTCCGCGGTCCGCAGCGCT, the binding signal (log2 normalized intensity) is -1.05.

With TCCCTGCCAAAGGTCAGAGTTGAACCCTTG, the binding signal (log2 normalized intensity) is 5.15.

For the sequence AAAACAGAATGGTCTGTATTTCAGAGACTA, the binding signal (log2 normalized intensity) is -0.994.

As to TTACTGCAGAGAAGAAGCTTTGCCATTGTT, the binding signal (log2 normalized intensity) was 0.786.

On to ATGAGGGCAGGATGCATGCACTTCATTGTG, for which the binding signal (log2 normalized intensity) was 1.06.

On to TGCTTATCTTCTCTTTTACTGTACTTCTTT, for which the binding signal (log2 normalized intensity) is 1.82.

Consider ATTGGTTGCAGAAGGCAGCCAAACAGAGGC, for which the binding signal (log2 normalized intensity) is -1.15.

As for CTGACGCCATCTGGCGTCCCCCACCTGGAA, the binding signal (log2 normalized intensity) is 4.57.

On to GACCACCTGGTGGACCCAGCTGGTAAGTGC, for which the binding signal (log2 normalized intensity) was found to be 1.97.

Consider GAATTTGGACTTTGCACTAAAAGCCATGAG, for which the binding signal (log2 normalized intensity) came to 5.86.

As to AGGATCTGTGTTATGCTTGCAGGTGTCAGG, the binding signal (log2 normalized intensity) stood at 1.95.

Turning to GACCTGGACTCCCAAGATGGATTGGGTCCA, the binding signal (log2 normalized intensity) turned out to be 2.23.
